# Assay results as given in the supplement of paper PMC3334620.
# Over roughly 33,000 sequences, “E-score (-0.5 to 0.5)” has its median near -0.017; the highest 2% begin near 0.3. The list shows a part of the results.
# Molecular target: T1, Sut1 (UniProt P53032)
# T1 sequence: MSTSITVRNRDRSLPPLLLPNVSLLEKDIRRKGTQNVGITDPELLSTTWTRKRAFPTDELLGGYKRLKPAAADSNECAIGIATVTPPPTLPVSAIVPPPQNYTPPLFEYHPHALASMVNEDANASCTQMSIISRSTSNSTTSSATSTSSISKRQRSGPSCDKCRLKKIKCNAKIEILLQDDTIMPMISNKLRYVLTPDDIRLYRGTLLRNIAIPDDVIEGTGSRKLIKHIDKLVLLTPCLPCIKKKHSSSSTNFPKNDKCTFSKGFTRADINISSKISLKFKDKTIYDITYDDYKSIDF
# Assay: PBM E-score (8-mer binding enrichment) (E-score (-0.5 to 0.5)); higher = stronger / more preferred TF binding; most listed sequences are background and not binding sites
# Settings: protein concentration: 200 nM; construct: GST-full length
# Experimental: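 Universal 'all 10-mer' protein binding microarrays (Agilent AMADID 015681) probed with GST-tagged S. cerevisiae TFs (full-length or DBD) made by in vitro transcription/translation (PURExpress), about 100-200 nM. Bound TF was detected with fluorescent anti-GST. Each ungapped 8-mer (which stands for itself and its reverse complement) is scored by the PBM enrichment score (E-score), a modified Wilcoxon-Mann-Whitney statistic from -0.5 to +0.5, computed with the Universal PBM Analysis Suite. Scale: above 0.35 generally sequence-specific binding.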
row,Sequence,PBM E-score
1,AATGAAAG,0.194
2,AAGAGTCA,-0.0453
3,AGCCGAGC,-0.0263
4,ATATCTCG,0.118
5,CATGCGTC,-0.0635
6,CGGTATGA,-0.0057
7,GAGCGTCA,-0.161
8,GAGCGAAC,-0.0893
9,GGTGTCTA,0.0163
10,GGGTGAAA,0.0413
11,AGATTAAG,0.173
12,AGGGTAGC,-0.271
13,AGTCGACG,0.157
14,AGAGCACC,-0.249
15,TGGCGCAA,-0.118
16,GCCGTGAA,0.0139
17,ATTAACTC,0.261
18,ACGTGATA,0.0696
19,AAAAAAGA,0.176
20,CTACTCGA,0.0576
21,AATTAGCA,0.177
22,TCACCGAA,0.155
23,ACATAAAC,0.138
24,AGCGGACA,0.107
25,ATTAACGC,-0.082

row,Sequence,PBM E-score
1,TCGCCAGA,-0.127
2,AATAAACC,0.224
3,ACCGAAAG,0.0623
4,CATACTCG,-0.056
5,AGACAGCA,0.0488
6,TACTACAA,0.276
7,AAGTGTTA,0.0732
8,ATGGGCCA,0.0249
9,ACACGAGA,-0.249
10,CAGTCCAA,-0.0383
11,AAATGGTT,0.0504
12,AATATAAC,0.294
13,CGCCCGAC,-0.147
14,ACGAGAAG,0.0931
15,GTAGGATA,0.0282
16,CTAGTACC,-0.122
17,TAAGCATA,0.122
18,ATGAAGTC,0.107
19,AATCCACG,0.157
20,CTAACGGC,0.0477
21,CGACGGGC,-0.197
22,CATTCGCG,0.071
23,CAAGCATG,0.0043
24,AATCGGGC,-0.0945
25,CAATTCAA,0.0614

row,Sequence,PBM E-score
1,ACCTTAAT,-0.0174
2,ACACGAGC,-0.169
3,ATGACTCG,-0.0426
4,GGATTGCC,-0.146
5,ATTTAAAT,0.232
6,AACTTAGC,-0.0324
7,ACAATCCA,0.255
8,AGATAAAG,0.0894
9,CAGCTGCC,-0.0921
10,AGTGTTTA,0.162
11,AGCCAAGA,-0.0666
12,ATTTCGGC,0.0959
13,CCCTTTGC,-0.108
14,ACTTTGCC,0.0133
15,AGTGACGG,0.103
16,GTATATAA,0.277
17,ATTGGACG,-0.0333
18,AGAGAAAA,0.0987
19,TCCGATCA,0.286
20,GTCAGTGA,-0.0931
21,CACTACGG,0.103
22,ACGACGGC,-0.319
23,ACATATAT,0.266
24,ACCCCTGA,-0.255
25,AACCCCGG,0.438

row,Sequence,PBM E-score
1,ATGGATTC,-0.121
2,CCACATCA,0.00393
3,ACTCTGTG,-0.0954
4,AAAAAAGT,0.21
5,CTGTAACA,-0.226
6,AATTGAGT,0.189
7,CGGTGCCC,-0.158
8,AAGGTCAT,-0.0897
9,ACGTAATC,0.0136
10,CTTCCGTA,0.181
11,CAATGTCA,0.103
12,ACTATCGG,0.149
13,TCACGGCA,0.108
14,CCGAGGCG,-0.172
15,TGGACTAA,-0.104
16,AGCAAAAA,0.279
17,ACACACGT,-0.0258
18,CTTAGTTA,0.0937
19,ACAGTCGG,0.0941
20,ATCCAAGG,-0.0637
21,GGATGACA,0.0191
22,AGTCCTAA,-0.00696
23,TAACACGA,0.0134
24,GGCAAGCA,-0.11
25,ACTGTGAC,-0.142

row,Sequence,PBM E-score
1,AACCATAG,-0.00688
2,CTGCTCAA,-0.101
3,CATTCCAC,-0.0352
4,GGCTTAGA,-0.242
5,AACTCCAG,0.137
6,CTGGGACC,-0.3
7,CCGCGATC,0.00816
8,GCGGAAGC,0.069
9,AATAAGGA,0.0856
10,ATTTAAAG,0.267
11,ACTTCACT,0.196
12,AGTTGGCA,0.119
13,GTGATAGA,0.043
14,GCAATGAA,0.0552
15,ATACAGTA,0.141
16,CAGCCGCG,-0.132
17,CCGGGCAG,-0.121
18,TATTTCCA,0.146
19,AAGCGTTG,0.0783
20,AGGAGAGC,-0.345
21,CTATAGCA,0.0427
22,CGGAGCCC,0.183
23,AGAAGACA,0.00462
24,ACTTGACC,-0.0871
25,ACCGTGAC,-0.126

row,Sequence,PBM E-score
1,AAAAATGG,0.175
2,TCCATACA,0.118
3,CGTGGTAC,-0.123
4,GACACGTA,-0.0615
5,GGCTCACA,-0.13
6,AGCGTCTC,-0.14
7,AAGGACCG,0.0453
8,CATGTCGG,-0.0605
9,CAGCGTAG,0.0426
10,CTACTTAA,0.0855
11,CATTCAAG,0.0133
12,GAGTATGC,0.068
13,CCTCCGTA,0.0232
14,AGTCCTAG,-0.0729
15,CATCGAGC,-0.0361
16,CAGTCGTC,-0.102
17,GAATGGCC,0.03
18,CTCCGGTC,0.418
19,CCTCCTGA,-0.168
20,GGACTTAC,0.352
21,ATGAGATA,0.128
22,CCGGTCCG,0.182
23,TCCGAGGA,0.34
24,CCCGTCTC,-0.256
25,TCAATCCA,-0.00469

row,Sequence,PBM E-score
1,ATGGGTTG,-0.0255
2,CTAAGCAG,-0.0865
3,GCACCCAA,-0.114
4,GTCATGTA,-0.0415
5,GCGATCAA,-0.145
6,AGCGTATC,-0.0874
7,CGTAGGCC,-0.112
8,GCCCTCGA,-0.284
9,ACGAGCCT,-0.195
10,CTACCCTC,-0.233
11,ACCAGCAA,0.085
12,AGCTAGAC,-0.044
13,GATTGGCA,-0.18
14,AAGCATAA,0.104
15,GATGCTAA,0.0485
16,ACTCCGGC,0.489
17,ATCGTAGC,-0.0256
18,GACAACTA,0.147
19,GAATGTTA,0.234
20,AGCGTCCG,-0.0943
21,AGTGTGAA,0.19
22,AAAGAGAC,0.15
23,ATGCATCG,0.0435
24,ACGGCGAC,-0.0258
25,AATTTAGG,0.199

row,Sequence,PBM E-score
1,CGGATTTA,0.236
2,CCAGCAAC,0.0963
3,AGACATAC,-0.124
4,AGAGGCAT,0.03
5,GACGCCCA,-0.229
6,AAGGCGTG,-0.182
7,GGCTTTGA,0.0492
8,CGACCCTC,-0.081
9,AACTAAGG,0.162
10,CTAATAAA,0.197
11,GAGAAGCA,-0.0115
12,AGGCGAAC,-0.145
13,GAGAGGGA,-0.25
14,ATCCCTAC,0.0509
15,CAATAGAC,0.0854
16,AGCTAACA,-0.0661
17,AGGCCAAT,-0.0219
18,CCGTTAGG,-0.0674
19,ACATCCCA,-0.192
20,TACGTAAA,0.122
21,GTCGACAC,-0.097
22,CATCGTAC,-0.141
23,CGGGTCAA,0.00658
24,CACCTTAA,0.00957
25,GTGTTGGA,0.0639

row,Sequence,PBM E-score
1,TGGTCAAA,0.0173
2,CCAGCCCC,-0.104
3,AATTATGG,0.179
4,TGTGAACA,0.0484
5,ACGGGACG,-0.088
6,AATCAGGG,-0.288
7,GTCAGCGA,-0.186
8,ATGAATTG,0.165
9,GCACCCCA,-0.204
10,ATATTCAG,0.04
11,ATGAGTCA,-0.0351
12,CCCACCAG,-0.347
13,AAATATGT,0.317
14,AAAATACT,0.139
15,AGGTCTAA,-0.0642
16,ACATGCCC,-0.00981
17,ACAATCGC,-0.0754
18,CCCGTAGA,-0.245
19,ACCACGGT,-0.276
